Data taken from the supplement of paper PMC12067093, “Discovery and optimisation of a covalent ligand for TRIM25 and its application to targeted protein ubiquitination” (Chemical Science, 2025).
Of roughly 21,000 targets only a part is listed; those with the largest changes were picked by preference.

Compound: CC1Cc2ccccc2N1C(=O)C1CCCN(C1)C(=O)CCl (mixture of isomers) [TRIM25 ligand 11 (diastereomer mixture)]
Experiment: probe-labelled cysteine peptide fold change vs DMSO (competition) (log2 fold change); higher = less target engagement (more negative = stronger competition)
Settings: THP-1, incubation time: 4 h
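Note: competitive chemoproteomic profiling in live THP-1 cells with an iodoacetamide desthiobiotin (IA-DTB) probe, comparing probe-labelled peptide intensities in compound-treated cells against DMSO-treated controls.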

Sequence of UniProt P51149 (P51149 whole entry, looked up): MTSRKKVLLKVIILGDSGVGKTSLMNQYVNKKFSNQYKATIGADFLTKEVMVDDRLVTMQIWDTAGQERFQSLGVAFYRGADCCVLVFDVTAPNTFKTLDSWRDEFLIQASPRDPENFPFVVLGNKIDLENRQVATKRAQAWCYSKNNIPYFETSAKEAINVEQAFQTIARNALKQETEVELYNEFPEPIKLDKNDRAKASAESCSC
Sequence of UniProt Q14699 (Q14699 whole entry, looked up): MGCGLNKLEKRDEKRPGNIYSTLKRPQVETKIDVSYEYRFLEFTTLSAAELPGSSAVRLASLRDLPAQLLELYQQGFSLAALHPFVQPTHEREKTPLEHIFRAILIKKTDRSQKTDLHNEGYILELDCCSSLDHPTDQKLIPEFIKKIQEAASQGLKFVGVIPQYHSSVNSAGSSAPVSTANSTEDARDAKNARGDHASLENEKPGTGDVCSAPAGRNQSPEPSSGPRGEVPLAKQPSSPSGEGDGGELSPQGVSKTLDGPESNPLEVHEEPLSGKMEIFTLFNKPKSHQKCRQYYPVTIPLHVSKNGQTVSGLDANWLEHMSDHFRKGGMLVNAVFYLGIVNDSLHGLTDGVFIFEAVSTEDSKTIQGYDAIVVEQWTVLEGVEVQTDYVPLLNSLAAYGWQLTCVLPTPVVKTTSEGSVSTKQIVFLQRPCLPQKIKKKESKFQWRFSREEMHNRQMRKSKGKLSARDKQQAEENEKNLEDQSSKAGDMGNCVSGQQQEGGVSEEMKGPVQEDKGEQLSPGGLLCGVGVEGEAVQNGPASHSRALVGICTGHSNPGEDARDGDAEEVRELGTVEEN
Sequence of UniProt P62834 (P62834 whole entry, looked up): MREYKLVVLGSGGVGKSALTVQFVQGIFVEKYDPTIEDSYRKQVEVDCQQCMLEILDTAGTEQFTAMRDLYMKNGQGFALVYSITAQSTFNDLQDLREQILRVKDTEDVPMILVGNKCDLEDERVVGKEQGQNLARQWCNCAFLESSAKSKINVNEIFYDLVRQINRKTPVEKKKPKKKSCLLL
Sequence of UniProt Q13129 (Q13129 whole entry, looked up): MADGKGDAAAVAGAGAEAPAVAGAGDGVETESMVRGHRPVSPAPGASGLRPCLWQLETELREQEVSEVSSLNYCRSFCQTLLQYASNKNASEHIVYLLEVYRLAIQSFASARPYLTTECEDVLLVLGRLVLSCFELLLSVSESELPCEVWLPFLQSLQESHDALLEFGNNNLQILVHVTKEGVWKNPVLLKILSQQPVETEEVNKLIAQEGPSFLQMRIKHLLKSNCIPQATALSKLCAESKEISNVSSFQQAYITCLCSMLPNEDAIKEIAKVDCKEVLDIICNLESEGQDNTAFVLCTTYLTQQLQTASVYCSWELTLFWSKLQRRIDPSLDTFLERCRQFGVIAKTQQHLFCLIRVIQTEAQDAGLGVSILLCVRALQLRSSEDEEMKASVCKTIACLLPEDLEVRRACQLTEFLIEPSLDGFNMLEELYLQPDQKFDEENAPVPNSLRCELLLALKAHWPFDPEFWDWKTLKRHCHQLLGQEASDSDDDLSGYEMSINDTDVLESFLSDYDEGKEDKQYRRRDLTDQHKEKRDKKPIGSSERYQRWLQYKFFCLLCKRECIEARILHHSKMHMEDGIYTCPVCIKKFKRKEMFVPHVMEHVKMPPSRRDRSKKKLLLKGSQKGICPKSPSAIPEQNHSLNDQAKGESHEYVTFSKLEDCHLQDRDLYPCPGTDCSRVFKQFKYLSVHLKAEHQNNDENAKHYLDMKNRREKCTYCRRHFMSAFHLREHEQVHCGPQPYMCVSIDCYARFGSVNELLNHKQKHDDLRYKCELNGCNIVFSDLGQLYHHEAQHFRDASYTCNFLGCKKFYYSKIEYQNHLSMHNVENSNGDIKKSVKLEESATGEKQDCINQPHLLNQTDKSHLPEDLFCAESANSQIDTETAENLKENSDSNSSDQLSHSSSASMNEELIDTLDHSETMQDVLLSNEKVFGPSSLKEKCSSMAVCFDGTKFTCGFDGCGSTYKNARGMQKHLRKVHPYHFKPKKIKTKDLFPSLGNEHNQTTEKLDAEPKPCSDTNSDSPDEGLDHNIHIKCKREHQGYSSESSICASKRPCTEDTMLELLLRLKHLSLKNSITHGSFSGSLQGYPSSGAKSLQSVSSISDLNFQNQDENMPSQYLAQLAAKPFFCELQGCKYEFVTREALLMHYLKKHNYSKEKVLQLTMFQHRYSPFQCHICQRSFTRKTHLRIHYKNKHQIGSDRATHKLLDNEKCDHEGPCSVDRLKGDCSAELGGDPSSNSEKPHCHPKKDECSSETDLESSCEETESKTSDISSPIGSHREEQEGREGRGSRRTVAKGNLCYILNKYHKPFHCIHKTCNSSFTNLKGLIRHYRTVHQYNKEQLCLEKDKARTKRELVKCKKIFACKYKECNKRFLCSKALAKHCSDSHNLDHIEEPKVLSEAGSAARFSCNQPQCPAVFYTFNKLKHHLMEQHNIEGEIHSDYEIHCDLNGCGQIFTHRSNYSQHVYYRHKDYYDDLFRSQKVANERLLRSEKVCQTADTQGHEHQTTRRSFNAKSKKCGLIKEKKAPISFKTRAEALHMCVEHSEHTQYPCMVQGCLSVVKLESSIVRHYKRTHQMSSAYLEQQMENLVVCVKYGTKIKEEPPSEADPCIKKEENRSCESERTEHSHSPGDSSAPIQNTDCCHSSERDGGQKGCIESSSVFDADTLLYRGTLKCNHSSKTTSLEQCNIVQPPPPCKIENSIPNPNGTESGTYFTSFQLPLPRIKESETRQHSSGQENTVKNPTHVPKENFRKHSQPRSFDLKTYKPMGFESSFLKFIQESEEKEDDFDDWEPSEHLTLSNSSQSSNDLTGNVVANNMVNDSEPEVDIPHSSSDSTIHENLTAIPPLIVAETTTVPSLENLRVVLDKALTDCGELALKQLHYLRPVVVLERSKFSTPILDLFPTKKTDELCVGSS
Sequence of UniProt P46063 (P46063 whole entry, looked up): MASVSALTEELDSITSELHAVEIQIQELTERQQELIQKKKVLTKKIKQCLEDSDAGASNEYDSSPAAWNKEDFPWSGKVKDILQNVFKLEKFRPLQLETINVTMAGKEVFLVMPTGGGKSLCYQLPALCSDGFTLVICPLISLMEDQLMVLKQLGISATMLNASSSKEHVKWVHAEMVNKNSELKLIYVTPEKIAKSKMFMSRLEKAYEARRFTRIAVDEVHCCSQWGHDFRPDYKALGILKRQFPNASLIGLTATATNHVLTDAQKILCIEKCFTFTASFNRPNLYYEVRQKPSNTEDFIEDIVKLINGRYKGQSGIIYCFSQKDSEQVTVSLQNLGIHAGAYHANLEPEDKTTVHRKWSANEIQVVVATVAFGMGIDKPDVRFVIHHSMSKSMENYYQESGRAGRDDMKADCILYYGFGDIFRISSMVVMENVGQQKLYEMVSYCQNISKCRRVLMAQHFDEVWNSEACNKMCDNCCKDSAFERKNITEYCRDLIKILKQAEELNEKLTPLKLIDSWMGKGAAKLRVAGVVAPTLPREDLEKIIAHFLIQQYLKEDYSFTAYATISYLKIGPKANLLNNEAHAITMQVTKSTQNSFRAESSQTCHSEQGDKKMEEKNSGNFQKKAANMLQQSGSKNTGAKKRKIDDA
Sequence of UniProt Q96C36 (Q96C36 whole entry, looked up): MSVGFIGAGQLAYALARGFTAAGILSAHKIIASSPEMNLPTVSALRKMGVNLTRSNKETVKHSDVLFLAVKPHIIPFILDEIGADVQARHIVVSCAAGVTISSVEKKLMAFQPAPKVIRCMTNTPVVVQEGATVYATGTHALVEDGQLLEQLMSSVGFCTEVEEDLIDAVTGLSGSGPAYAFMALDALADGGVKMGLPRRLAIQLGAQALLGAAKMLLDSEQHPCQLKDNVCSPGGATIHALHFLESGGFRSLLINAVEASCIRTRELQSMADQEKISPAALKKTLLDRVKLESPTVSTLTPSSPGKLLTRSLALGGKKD
Sequence of UniProt Q7Z7A4 (Q7Z7A4 whole entry, looked up): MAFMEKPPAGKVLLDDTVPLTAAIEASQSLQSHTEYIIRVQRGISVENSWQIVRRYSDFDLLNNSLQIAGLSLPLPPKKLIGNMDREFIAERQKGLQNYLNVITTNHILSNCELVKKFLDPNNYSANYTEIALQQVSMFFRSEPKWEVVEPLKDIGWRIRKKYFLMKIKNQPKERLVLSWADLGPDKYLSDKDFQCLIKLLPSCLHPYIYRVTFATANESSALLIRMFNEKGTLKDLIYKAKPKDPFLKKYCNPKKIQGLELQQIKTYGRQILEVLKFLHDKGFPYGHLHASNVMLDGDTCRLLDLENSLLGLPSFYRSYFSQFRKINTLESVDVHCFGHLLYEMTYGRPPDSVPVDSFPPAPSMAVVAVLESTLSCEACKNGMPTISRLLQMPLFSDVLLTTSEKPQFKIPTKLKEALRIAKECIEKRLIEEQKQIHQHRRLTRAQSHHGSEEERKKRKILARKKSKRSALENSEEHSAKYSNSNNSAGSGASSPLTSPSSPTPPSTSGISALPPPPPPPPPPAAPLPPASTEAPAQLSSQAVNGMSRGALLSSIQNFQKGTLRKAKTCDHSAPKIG
Sequence of UniProt Q969U7 (Q969U7 whole entry, looked up): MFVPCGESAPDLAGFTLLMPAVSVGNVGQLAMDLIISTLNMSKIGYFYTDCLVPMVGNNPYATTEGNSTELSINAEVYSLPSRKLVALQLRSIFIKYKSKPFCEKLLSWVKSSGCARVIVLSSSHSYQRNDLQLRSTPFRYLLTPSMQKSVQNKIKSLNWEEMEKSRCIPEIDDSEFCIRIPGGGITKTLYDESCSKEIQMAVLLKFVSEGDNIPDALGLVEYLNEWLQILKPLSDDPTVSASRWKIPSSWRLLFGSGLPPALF
Sequence of UniProt Q13637 (Q13637 whole entry): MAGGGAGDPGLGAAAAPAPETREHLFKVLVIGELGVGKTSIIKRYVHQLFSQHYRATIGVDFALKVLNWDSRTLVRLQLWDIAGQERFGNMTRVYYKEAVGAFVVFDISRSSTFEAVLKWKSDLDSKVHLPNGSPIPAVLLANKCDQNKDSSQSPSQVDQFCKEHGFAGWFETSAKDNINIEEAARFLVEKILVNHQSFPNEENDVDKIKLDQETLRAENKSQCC

Target	probe-labelled cysteine peptide fold change (10 µM)	probe-labelled cysteine peptide fold change (50 µM)
RCSD1_Q6JBY9_181_RSQSDCGELGDFR (UniProt Q6JBY9)	-0.286	-0.728
RIF1_Q5UIP0_1718_TFQTLECQHK (UniProt Q5UIP0)	0.177	-0.0709
PTPMT1_Q8WUK0_127_YQSLGQCVYVHCK (UniProt Q8WUK0)	0.0332	0.197
RIPOR1_Q6ZS17_196_GHREYTESMCLLESELEAQLGEFHLR (UniProt Q6ZS17)	0.611	0.655
RAP1A_P62834_118_VKDTEDVPMILVGNKCDLEDER (UniProt P62834)	-0.561	-0.473
RABGAP1_Q9Y3P9_155_LTYLGCASVNAPR (UniProt Q9Y3P9)	0.181	0.0897
RLF_Q13129_1383_HCSDSHNLDHIEEPK (UniProt Q13129)	0.194	-0.382
RAB32_Q13637_162_DSSQSPSQVDQFCK (UniProt Q13637)	0.143	0.144
RPL18A_Q02543_109_EYRDLTTAGAVTQCYR (UniProt Q02543)	-0.642	-0.349
RFTN1_Q14699_211_GDHASLENEKPGTGDVCSAPAGR (UniProt Q14699)	0.201	0.0329
ROCK2_O75116_330_NLICAFLTDR<|>ROCK1_Q13464_314_NLICAFLTDR (UniProt Q13464+O75116)	-0.569	-0.204
RPAP1_Q9BWH6_185_GPSVGEVVPNVGPPEGAVTCETPTPR (UniProt Q9BWH6)	0.916	-0.309
RABEP1_Q15276_718_EQIQAEQCLK (UniProt Q15276)	-0.00537	-0.052
PSMG2_Q969U7_168+178_CIPEIDDSEFCIR (UniProt Q969U7)	0.0182	0.1
RMND5A_Q9H871_25_FSGYGQLCER (UniProt Q9H871)	-0.0161	-0.0553
QARS_P47897_111_SHPLDPIDTVDFERECGVGVIVTPEQIEEAVEAAINR (UniProt P47897)	0.149	-0.248
PSMB10_P40306_83_IYCCGAGVAADAEMTTR (UniProt P40306)	-0.122	-0.141
RECQL_P46063_471_RVLMAQHFDEVWNSEACNK (UniProt P46063)	0.125	0.0736
PSMD2_Q13200_205_EIVPYNMAHNAEHEACDLLMEIEQVDMLEK (UniProt Q13200)	-0.106	-0.368

Target	probe-labelled cysteine peptide fold change (10 µM)	probe-labelled cysteine peptide fold change (50 µM)
RNF213_Q63HN8_2503_EVLCDHMVDGQPLAEDSGLHIIAACNPYRK (UniProt Q63HN8)	0.0484	-0.0993
RIPOR1_Q6ZS17_925_CQEAWALER (UniProt Q6ZS17)	0.111	0.0416
PSMD14_O00487_238_SWMEGLTLQDYSEHCK (UniProt O00487)	0.0819	-0.0838
RNH1_P13489_209+216_LESCGVTSDNCR (UniProt P13489)	0.031	
PTPN11_Q06124_463_QESIMDAGPVVVHCSAGIGR (UniProt Q06124)	0.188	-0.225
PTPN11_Q06124_333_SYIATQGCLQNTVNDFWR (UniProt Q06124)	0.353	0.172
PTPRC_P08575_1261_VKQDANCVNPLGAPEK (UniProt P08575)	-0.0737	-0.153
PXK_Q7Z7A4_252_KYCNPK (UniProt Q7Z7A4)	0.0209	-0.0879
PYCR2_Q96C36_232_DNVCSPGGATIHALHFLESGGFR (UniProt Q96C36)	0.0855	-0.0775
RANBP6_O60518_792_SIEVMGDGCLNDEHLEELGGILK (UniProt O60518)	-0.039	-0.173
RAB7A_P51149_143_AQAWCYSK (UniProt P51149)	0.0123	-0.105
RALGAPB_Q86X10_1096_SFPDPVTDCKPPPPAQEFQTAR (UniProt Q86X10)	-0.0494	0.0696
RNH1_P13489_305+313_LLCETLLEPGCQLESLWVK (UniProt P13489)	0.054	-0.0643
PUM3_Q15397_610_GAIILSSLLQSCDLEVANK (UniProt Q15397)	-0.0503	0.098
RNH1_P13489_199_DSPCQLEALKLESCGVTSDNCR (UniProt P13489)	-0.776	-0.389
PSMD1_Q99460_571_MEEADALIESLCR (UniProt Q99460)	0.00582	0.124
RBPJ_Q06330_252_LVCSVTGMALPR (UniProt Q06330)	0.0145	-0.0369
RNF213_Q63HN8_3008_CSEEVSPMQLIK (UniProt Q63HN8)	-0.0475	-0.255
